Assay results published in the supplement of paper PMC11741623.
The other results are listed elsewhere or left out. Interaction screen of human proteins with wild-type SARS-CoV-2 proteins by split-DHFR complementation in yeast, 1 µg/mL methotrexate. Value = fitness of the pair (three or more lineages) minus that of the viral protein without a human partner, on a scale set by negative (0) and fused positive (1) controls, mean of up to three cultures; higher = more likely to interact. Active = false discovery rate below 0.05 (one-sided t-test) in at least one culture. Nearly all pairs are not hits, and differences among them are mostly noise (correlation between cultures about 0.3); most hits were seen in one culture only. Human sequences are the Swiss-Prot entries looked up by gene name; the clone may be another isoform. NSP2 values were corrected by the authors for a growth advantage. Listed are human proteins with a hit and a random twelfth of the others.

What was measured:
Experiment in all cases: yeast fitness gain over the viral ORF with no human partner (scaled fitness); higher = more likely to interact
SARS-CoV-2 N = target: SARS-CoV-2 N
Method: (§1)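 Split mouse DHFR complementation in pooled diploid yeast: human ORFeome clones carry one fragment and viral ORFs the other; barcoded lineages compete in 1 µg/mL methotrexate and fitness is read by barcode sequencing in up to three cultures.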

SARS-CoV-2 NSP10 = target: SARS-CoV-2 NSP10
Method: as §1

SARS-CoV-2 NSP12 = target: SARS-CoV-2 NSP12
Method: as §1

SARS-CoV-2 NSP13 = target: SARS-CoV-2 NSP13
Method: as §1

SARS-CoV-2 NSP14 = target: SARS-CoV-2 NSP14
Method: as §1

SARS-CoV-2 NSP2 = target: SARS-CoV-2 NSP2
Method: as §1

SARS-CoV-2 NSP8 = target: SARS-CoV-2 NSP8
Method: as §1

SARS-CoV-2 ORF10 = target: SARS-CoV-2 ORF10
Method: as §1

SARS-CoV-2 ORF7A = target: SARS-CoV-2 ORF7A
Method: as §1

SARS-CoV-2 ORF7B = target: SARS-CoV-2 ORF7B
Method: as §1

SARS-CoV-2 ORF8 = target: SARS-CoV-2 ORF8
Method: as §1

SARS-CoV-2 ORF9B = target: SARS-CoV-2 ORF9B
Method: as §1

SARS-CoV-2 S = target: SARS-CoV-2 S
Method: as §1

SARS-CoV-2 NSP16 = target: SARS-CoV-2 NSP16
Method: as §1

SARS-CoV-2 NSP5 = target: SARS-CoV-2 NSP5
Method: as §1

SARS-CoV-2 NSP7 = target: SARS-CoV-2 NSP7
Method: as §1

SARS-CoV-2 ORF3B = target: SARS-CoV-2 ORF3B
Method: as §1

SARS-CoV-2 ORF6 = target: SARS-CoV-2 ORF6
Method: as §1

SARS-CoV-2 NSP1 = target: SARS-CoV-2 NSP1
Method: as §1

SARS-CoV-2 ORF3A = target: SARS-CoV-2 ORF3A
Method: as §1

[1] = target: SARS-CoV-2 ORF9Bwu (the 73-codon ORF)
Method: as §1

SARS-CoV-2 NSP15 = target: SARS-CoV-2 NSP15
Method: as §1

SARS-CoV-2 NSP4 = target: SARS-CoV-2 NSP4
Method: as §1

SARS-CoV-2 NSP9 = target: SARS-CoV-2 NSP9
Method: as §1

SARS-CoV-2 NSP6 = target: SARS-CoV-2 NSP6
Method: as §1

Measured: yeast fitness gain

B1: IFLTD1, Q8N9Z9 (protein)
chain: MLEGSWINRREDKLGVYSLVHFSPKMLGSVATTLPLSSSNSSGMPLGYYLSSPQISRVTISTTGQLTSKATVGSCSRVENSLDASPFSVPKKQDESPMIGDGEDYFLSLFGDSKKLTAHSNYTQKTLKYFSMILEEVGQFTSSSLGDVEIAEVNVKGLFVKLINSSLDKEMAIGDHILQQNVNGQTISLYRFLPNIVMQANSTVTVWAAASEAKHQPPSDFLWKEQDKFRASPDCITILCKPNGQAIAWYTPIHWKQAWEKLDADVEFNRCSVVSPTFRKRVFQWTASTATITKEKQDQPKKDISNYQVEQAQVLLKREKEIPPTVFPNRSPWCQNPYVSAHPYCPLIEPHNTSTAGGRLDRQPRTRSTRPNRASGSKKKKTSESQKQ
inactive: SARS-CoV-2 N 0.01 | SARS-CoV-2 NSP10 = -0.0495 | SARS-CoV-2 NSP12 = -0.0735 | SARS-CoV-2 NSP13 = -0.141 | SARS-CoV-2 NSP14 = -0.00747 | SARS-CoV-2 NSP2 = -0.246 | SARS-CoV-2 NSP8 = -0.0374 | SARS-CoV-2 ORF10 = -0.108 | SARS-CoV-2 ORF7A 0.0149 | SARS-CoV-2 ORF7B -0.0165 | SARS-CoV-2 ORF8 = 0.0321 | SARS-CoV-2 ORF9B -0.0231 | SARS-CoV-2 S -0.209

B2: TMC6, Q7Z403 (protein)
chain: MAQPLAFILDVPETPGDQGQGPSPYDESEVHDSFQQLIQEQSQCTAQEGLELQQREREVTGSSQQTLWRPEGTQSTATLRILASMPSRTIGRSRGAIISQYYNRTVQLRCRSSRPLLGNFVRSAWPSLRLYDLELDPTALEEEEKQSLLVKELQSLAVAQRDHMLRGMPLSLAEKRSLREKSRTPRGKWRGQPGSGGVCSCCGRLRYACVLALHSLGLALLSALQALMPWRYALKRIGGQFGSSVLSYFLFLKTLLAFNALLLLLLVAFIMGPQVAFPPALPGPAPVCTGLELLTGAGCFTHTVMYYGHYSNATLNQPCGSPLDGSQCTPRVGGLPYNMPLAYLSTVGVSFFITCITLVYSMAHSFGESYRVGSTSGIHAITVFCSWDYKVTQKRASRLQQDNIRTRLKELLAEWQLRHSPRSVCGRLRQAAVLGLVWLLCLGTALGCAVAVHVFSEFMIQSPEAAGQEAVLLVLPLVVGLLNLGAPYLCRVLAALEPHDSPVLEVYVAICRNLILKLAILGTLCYHWLGRRVGVLQGQCWEDFVGQELYRFLVMDFVLMLLDTLFGELVWRIISEKKLKRRRKPEFDIARNVLELIYGQTLTWLGVLFSPLLPAVQIIKLLLVFYVKKTSLLANCQAPRRPWLASHMSTVFLTLLCFPAFLGAAVFLCYAVWQVKPSSTCGPFRTLDTMYEAGRVWVRHLEAAGPRVSWLPWVHRYLMENTFFVFLVSALLLAVIYLNIQVVRGQRKVICLLKEQISNEGEDKIFLINKLHSIYERKEREERSRVGTTEEAAAPPALLTDEQDA
inactive: SARS-CoV-2 N -0.0294 | SARS-CoV-2 NSP16 = 0.00736 | SARS-CoV-2 NSP5 = -0.0091 | SARS-CoV-2 NSP7 = -0.1 | SARS-CoV-2 ORF3B -0.0539 | SARS-CoV-2 ORF6 = -0.0584

B3: HLA-DPB1, P04440 (protein)
chain: MMVLQVSAAPRTVALTALLMVLLTSVVQGRATPENYLFQGRQECYAFNGTQRFLERYIYNREEFARFDSDVGEFRAVTELGRPAAEYWNSQKDILEEKRAVPDRMCRHNYELGGPMTLQRRVQPRVNVSPSKKGPLQHHNLLVCHVTDFYPGSIQVRWFLNGQEETAGVVSTNLIRNGDWTFQILVMLEMTPQQGDVYTCQVEHTSLDSPVTVEWKAQSDSARSKTLTGAGGFVLGLIICGVGIFMHRRSKKVQRGSA
inactive: SARS-CoV-2 N -0.139 | SARS-CoV-2 NSP1 = 0.0761 | SARS-CoV-2 NSP16 = 0.128 | SARS-CoV-2 NSP7 = -0.0758 | SARS-CoV-2 NSP8 = 0.0525 | SARS-CoV-2 ORF3A 0.0522 | SARS-CoV-2 ORF7A -0.0359 | SARS-CoV-2 ORF8 = 0.0332 | [1] -0.0968

B4: CHCHD2, Q9Y6H1 (protein)
chain: MPRGSRSRTSRMAPPASRAPQMRAAPRPAPVAQPPAAAPPSAVGSSAAAPRQPGLMAQMATTAAGVAVGSAVGHTLGHAITGGFSGGSNAEPARPDITYQEPQGTQPAQQQQPCLYEIKQFLECAQNQGDIKLCEGFNEVLKQCRLANGLA
inactive: SARS-CoV-2 N 0.0844 | SARS-CoV-2 NSP14 = -0.177 | SARS-CoV-2 NSP15 = -0.00931 | SARS-CoV-2 NSP16 = 0.0379 | SARS-CoV-2 NSP4 = 0.146 | SARS-CoV-2 NSP5 = 0.0327 | SARS-CoV-2 NSP7 = -0.0588 | SARS-CoV-2 NSP8 = 0.0816 | SARS-CoV-2 NSP9 = 0.189 | SARS-CoV-2 ORF10 = 0.0323 | SARS-CoV-2 ORF3A -0.0892 | SARS-CoV-2 ORF6 = 0.0218 | SARS-CoV-2 ORF7A 0.103 | SARS-CoV-2 ORF9B 0.0134 | [1] -0.0632

B5: FA2H, Q7L5A8 (protein)
chain: MAPAPPPAASFSPSEVQRRLAAGACWVRRGARLYDLSSFVRHHPGGEQLLRARAGQDISADLDGPPHRHSANARRWLEQYYVGELRGEQQGSMENEPVALEETQKTDPAMEPRFKVVDWDKDLVDWRKPLLWQVGHLGEKYDEWVHQPVTRPIRLFHSDLIEGLSKTVWYSVPIIWVPLVLYLSWSYYRTFAQGNVRLFTSFTTEYTVAVPKSMFPGLFMLGTFLWSLIEYLIHRFLFHMKPPSDSYYLIMLHFVMHGQHHKAPFDGSRLVFPPVPASLVIGVFYLCMQLILPEAVGGTVFAGGLLGYVLYDMTHYYLHFGSPHKGSYLYSLKAHHVKHHFAHQKSGFGISTKLWDYCFHTLTPEKPHLKTQ
inactive: SARS-CoV-2 N -0.0528 | SARS-CoV-2 NSP14 = 0.0807 | SARS-CoV-2 NSP4 = 0.138 | SARS-CoV-2 NSP9 = 0.0631 | SARS-CoV-2 ORF3A 0.0951

B6: PRSS2, P07478 (protein)
chain: MNLLLILTFVAAAVAAPFDDDDKIVGGYICEENSVPYQVSLNSGYHFCGGSLISEQWVVSAGHCYKSRIQVRLGEHNIEVLEGNEQFINAAKIIRHPKYNSRTLDNDILLIKLSSPAVINSRVSAISLPTAPPAAGTESLISGWGNTLSSGADYPDELQCLDAPVLSQAECEASYPGKITNNMFCVGFLEGGKDSCQGDSGGPVVSNGELQGIVSWGYGCAQKNRPGVYTKVYNYVDWIKDTIAANS
inactive: SARS-CoV-2 N 0.166 | SARS-CoV-2 NSP14 = -0.0869 | SARS-CoV-2 NSP16 = 0.0145 | SARS-CoV-2 NSP6 = 0.0577 | SARS-CoV-2 NSP9 = -0.0268 | SARS-CoV-2 ORF3A 0.00355
